Assay results published in publication PMC12820563, “FoxP3 forms a head-to-head dimer in vivo and stabilizes its multimerization on adjacent microsatellites”.
The other results are listed elsewhere or left out.

Each sequence was assayed against T1, MBP-FoxP1dN (Mus musculus, UniProt P58462 326-579) (assay: PD-seq (MBP pull-down with sequencing); 20 mM Tris-HCl pH 7.5, 100 mM NaCl, 1.5 mM MgCl2, 0.4 uM protein, 0.1 uM dsDNA library, 30 min, room temperature, amylose pull-down; high values mean tight binding). Details: protein: recombinant; tags: His6-MBP; chain copies: 2; dsDNA, one strand shown.
T1 sequence: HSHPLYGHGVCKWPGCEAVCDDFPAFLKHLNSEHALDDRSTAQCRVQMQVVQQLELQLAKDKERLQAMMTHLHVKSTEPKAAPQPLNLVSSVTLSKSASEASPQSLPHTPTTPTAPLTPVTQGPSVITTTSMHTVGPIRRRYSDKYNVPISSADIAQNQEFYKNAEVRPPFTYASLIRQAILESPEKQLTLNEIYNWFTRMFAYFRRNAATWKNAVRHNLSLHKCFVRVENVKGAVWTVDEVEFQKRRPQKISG
Summary of the method: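 Binding is given as reads-per-million enrichment, pull-down over input, with replicates pooled. The bait was an N-terminus-lacking mouse FoxP3 or FoxP1 fragment with a His6-MBP tag, expressed in E. coli and used at 0.4 µM with 0.1 µM Klenow-filled degenerate double-stranded DNA library for 30 min at room temperature in Tris pH 7.5 buffer with NaCl and MgCl2. Amylose resin pull-down with three washes was followed by proteinase K release, PCR barcoding and Illumina sequencing.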
With “GATGATTGTTCTCCCAGCTGATGAATTTGTTAAGTCGAGTAAACAAATTTTCCTAATCTTTCTGTTCAAGCGCCATCTAC” the binding signal was 1.17 RPM ratio (pull-down/input).
For “GATGATTGTTCTCCCAGCTGATGAATTGGGTTCATCGAGTAAACAAATTTTCCTAATCTTTCTGTTCAAGCGCCATCTAC”, the binding signal was 0.836 RPM ratio (pull-down/input).
With “GATGATTGTTCTCCCAGCTGATGAATTGTACAGTTCGAGTAAACAAATTTTCCTAATCTTTCTGTTCAAGCGCCATCTAC” the binding signal was 0.975 RPM ratio (pull-down/input).
“GATGATTGTTCTCCCAGCTGATGAATTCTACCTATCGAGTAAACAAATTTTCCTAATCTTTCTGTTCAAGCGCCATCTAC” was tested, and the binding signal was 0.867 RPM ratio (pull-down/input).
For “GATGATTGTTCTCCCAGCTGATGAATTAACCCAATCGAGTAAACAAATTTTCCTAATCTTTCTGTTCAAGCGCCATCTAC”, the binding signal was 1.02 RPM ratio (pull-down/input).
In the case of “GATGATTGTTCTCCCAGCTGATGAATTGGCTAATTCGAGTAAACAAATTTTCCTAATCTTTCTGTTCAAGCGCCATCTAC”, the binding signal is reported as 0.945 RPM ratio (pull-down/input).
In the case of “GATGATTGTTCTCCCAGCTGATGAATTTGTCGGGTCGAGTAAACAAATTTTCCTAATCTTTCTGTTCAAGCGCCATCTAC”, the binding signal is reported as 0.897 RPM ratio (pull-down/input).
In the case of “GATGATTGTTCTCCCAGCTGATGAATTCCTGTAGTCGAGTAAACAAATTTTCCTAATCTTTCTGTTCAAGCGCCATCTAC”, the binding signal is reported as 0.949 RPM ratio (pull-down/input).
In the case of “GATGATTGTTCTCCCAGCTGATGAATTGCAATAGTCGAGTAAACAAATTTTCCTAATCTTTCTGTTCAAGCGCCATCTAC”, the binding signal is reported as 1.19 RPM ratio (pull-down/input).
“GATGATTGTTCTCCCAGCTGATGAATTCATAAAATCGAGTAAACAAATTTTCCTAATCTTTCTGTTCAAGCGCCATCTAC” was tested, and the binding signal was 1.11 RPM ratio (pull-down/input).
For “GATGATTGTTCTCCCAGCTGATGAATTGTAATAGTCGAGTAAACAAATTTTCCTAATCTTTCTGTTCAAGCGCCATCTAC”, the binding signal was 1.1 RPM ratio (pull-down/input).
“GATGATTGTTCTCCCAGCTGATGAATTGATCATGTCGAGTAAACAAATTTTCCTAATCTTTCTGTTCAAGCGCCATCTAC” was tested, and the binding signal was 1 RPM ratio (pull-down/input).
For “GATGATTGTTCTCCCAGCTGATGAATTTTTGTAGTCGAGTAAACAAATTTTCCTAATCTTTCTGTTCAAGCGCCATCTAC”, the binding signal was 1.29 RPM ratio (pull-down/input).
For “GATGATTGTTCTCCCAGCTGATGAATTTCCCCAATCGAGTAAACAAATTTTCCTAATCTTTCTGTTCAAGCGCCATCTAC”, the binding signal was 1.02 RPM ratio (pull-down/input).
“GATGATTGTTCTCCCAGCTGATGAATTCATGGTCTCGAGTAAACAAATTTTCCTAATCTTTCTGTTCAAGCGCCATCTAC” was tested, and the binding signal was 0.794 RPM ratio (pull-down/input).
In the case of “GATGATTGTTCTCCCAGCTGATGAATTTTTTGAATCGAGTAAACAAATTTTCCTAATCTTTCTGTTCAAGCGCCATCTAC”, the binding signal is reported as 1.1 RPM ratio (pull-down/input).
“GATGATTGTTCTCCCAGCTGATGAATTAACTGCATCGAGTAAACAAATTTTCCTAATCTTTCTGTTCAAGCGCCATCTAC” was tested, and the binding signal was 1.19 RPM ratio (pull-down/input).
“GATGATTGTTCTCCCAGCTGATGAATTAATTGTTTCGAGTAAACAAATTTTCCTAATCTTTCTGTTCAAGCGCCATCTAC” was tested, and the binding signal was 1.44 RPM ratio (pull-down/input).
For “GATGATTGTTCTCCCAGCTGATGAATTTTGCTCTTCGAGTAAACAAATTTTCCTAATCTTTCTGTTCAAGCGCCATCTAC”, the binding signal was 0.708 RPM ratio (pull-down/input).
In the case of “GATGATTGTTCTCCCAGCTGATGAATTGGCTCACTCGAGTAAACAAATTTTCCTAATCTTTCTGTTCAAGCGCCATCTAC”, the binding signal is reported as 0.857 RPM ratio (pull-down/input).
With “GATGATTGTTCTCCCAGCTGATGAATTCCTTCCATCGAGTAAACAAATTTTCCTAATCTTTCTGTTCAAGCGCCATCTAC” the binding signal was 0.876 RPM ratio (pull-down/input).
With “GATGATTGTTCTCCCAGCTGATGAATTATCTTATTCGAGTAAACAAATTTTCCTAATCTTTCTGTTCAAGCGCCATCTAC” the binding signal was 0.949 RPM ratio (pull-down/input).
“GATGATTGTTCTCCCAGCTGATGAATTTCAATCTTCGAGTAAACAAATTTTCCTAATCTTTCTGTTCAAGCGCCATCTAC” was tested, and the binding signal was 0.875 RPM ratio (pull-down/input).
“GATGATTGTTCTCCCAGCTGATGAATTAGGCTATTCGAGTAAACAAATTTTCCTAATCTTTCTGTTCAAGCGCCATCTAC” was tested, and the binding signal was 0.885 RPM ratio (pull-down/input).
With “GATGATTGTTCTCCCAGCTGATGAATTCGCAGTTTCGAGTAAACAAATTTTCCTAATCTTTCTGTTCAAGCGCCATCTAC” the binding signal was 0.859 RPM ratio (pull-down/input).
In the case of “GATGATTGTTCTCCCAGCTGATGAATTAGGAGGGTCGAGTAAACAAATTTTCCTAATCTTTCTGTTCAAGCGCCATCTAC”, the binding signal is reported as 0.796 RPM ratio (pull-down/input).
“GATGATTGTTCTCCCAGCTGATGAATTCCCAGCCTCGAGTAAACAAATTTTCCTAATCTTTCTGTTCAAGCGCCATCTAC” was tested, and the binding signal was 0.768 RPM ratio (pull-down/input).
For “GATGATTGTTCTCCCAGCTGATGAATTACTACGGTCGAGTAAACAAATTTTCCTAATCTTTCTGTTCAAGCGCCATCTAC”, the binding signal was 0.974 RPM ratio (pull-down/input).
For “GATGATTGTTCTCCCAGCTGATGAATTATGATCCTCGAGTAAACAAATTTTCCTAATCTTTCTGTTCAAGCGCCATCTAC”, the binding signal was 0.908 RPM ratio (pull-down/input).
“GATGATTGTTCTCCCAGCTGATGAATTGACATTCTCGAGTAAACAAATTTTCCTAATCTTTCTGTTCAAGCGCCATCTAC” was tested, and the binding signal was 1.25 RPM ratio (pull-down/input).
For “GATGATTGTTCTCCCAGCTGATGAATTTACAAATTCGAGTAAACAAATTTTCCTAATCTTTCTGTTCAAGCGCCATCTAC”, the binding signal was 1.54 RPM ratio (pull-down/input).
In the case of “GATGATTGTTCTCCCAGCTGATGAATTCGGGACTTCGAGTAAACAAATTTTCCTAATCTTTCTGTTCAAGCGCCATCTAC”, the binding signal is reported as 0.778 RPM ratio (pull-down/input).
